{
  "source": "PubChem BioAssay AID1768",
  "about": "(National Center for Advancing Translational Sciences (NCATS), 2009)",
  "note": "Out of some 270,000 compounds screened, about 620 (0.23%) were called active. Inconclusive means that the source gave no clear call. Such entries were picked first, then a sample of the others. Calls come from the whole dose curve; as a rule, active = well fitted inhibition curve with a large enough effect in the polarisation, with a control signal flat (not every such curve was filed as active); inconclusive = small, poorly fitted or top-dose-only effect, or effect the other way, or a change in a side signal; inactive = no such curve, though single readings can be large or run the other way; the % refers to the polarisation. Potencies beside an inconclusive call are fits to weak or partial responses and may not hold up. A note “side channel” means that the fit belongs to a control or component signal, not to the main read-out. Potency is the fitted concentration of half-maximal effect; tags give direction and shape of the fitted curve or compound fluorescence and quenching.",
  "data": [
    {"target": "Menin (Homo sapiens) (UniProt O00255)", "sequence (O00255 whole entry, looked up)": "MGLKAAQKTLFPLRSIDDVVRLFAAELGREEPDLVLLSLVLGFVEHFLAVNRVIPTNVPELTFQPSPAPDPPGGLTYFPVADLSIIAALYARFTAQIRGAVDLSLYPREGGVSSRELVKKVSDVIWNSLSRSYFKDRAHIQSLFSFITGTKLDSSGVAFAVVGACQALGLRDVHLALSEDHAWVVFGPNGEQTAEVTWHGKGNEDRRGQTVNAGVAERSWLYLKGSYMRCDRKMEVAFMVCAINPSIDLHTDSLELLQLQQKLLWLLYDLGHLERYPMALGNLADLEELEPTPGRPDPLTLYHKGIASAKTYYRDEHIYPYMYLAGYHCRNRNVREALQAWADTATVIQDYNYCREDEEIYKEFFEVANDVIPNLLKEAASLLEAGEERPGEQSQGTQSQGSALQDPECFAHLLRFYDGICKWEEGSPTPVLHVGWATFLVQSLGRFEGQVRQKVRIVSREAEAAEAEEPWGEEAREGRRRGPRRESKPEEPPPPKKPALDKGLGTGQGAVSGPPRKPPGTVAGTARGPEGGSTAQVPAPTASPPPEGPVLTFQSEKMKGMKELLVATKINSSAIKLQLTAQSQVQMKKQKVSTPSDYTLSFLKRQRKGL", "assay": "qHTS Assay for Inhibitors Targeting the Menin-MLL Interaction in MLL Related Leukemias: Competition With Texas Red Labeled MLL-derived Mutant Peptide; for FP activity change, negative = inhibition: % of control where 0% means no effect", "conditions": "fluorescence polarization; FP activity change, negative = inhibition: at 61.6 µM (top of the series)", "values": [
      {"compound": "COCCNC(=O)CSc1nnc(-c2ccc(C)cc2)c(-c2ccc(C)cc2)n1", "Potency": "inconclusive: 39.8 µM [fluorescent, side channel, partial curve]"},
      {"compound": "CCCn1c(=O)c(Cc2ccccc2)c(O)c2ccccc21", "FP activity change, negative = inhibition": "inactive: -11.4%"},
      {"compound": "CCOC(=O)c1nnn(-c2nonc2-n2cccc2)c1CN1CCOCC1", "Potency": "inconclusive: 4.47 µM [inhibitor, single point]"},
      {"compound": "Cc1ccc(C(C)C)c(OCC(=O)Nc2sc3c(c2C#N)CC(C)(C)NC3(C)C)c1", "Potency": "inconclusive: 2.24 µM [fluorescent, side channel, full curve]"},
      {"compound": "COc1ccccc1CNC(=O)Cc1ccccc1", "Potency": "inconclusive: 39.8 µM [inhibitor, single point]"},
      {"compound": "Cn1c(=O)[nH]c(=O)c2c1nc(N1CCCCC1)n2CC(O)COc1ccccc1", "note": "(stereo not drawn)", "Potency": "inconclusive: 39.8 µM [fluorescent, side channel, single point]"},
      {"compound": "COc1c(OC2OC(C(=O)O)C(O)C(O)C2O)cc(O)c2c(=O)cc(-c3ccccc3)oc12", "note": "(stereo not drawn)", "FP activity change, negative = inhibition": "inactive: -20.6%"},
      {"compound": "COc1ccc(/C=C2\\SC(=S)N(NS(=O)(=O)c3ccc(C)cc3)C2=O)c(OC)c1", "Potency": "inconclusive: 39.8 µM [quencher, side channel, partial curve]"},
      {"compound": "O=c1[nH][nH]c(-c2ccccc2O)c1C(C[N+](=O)[O-])c1ccc(Cl)cc1Cl", "note": "(stereo not drawn)", "Potency": "inconclusive: 17.8 µM [quencher, side channel, partial curve]"},
      {"compound": "CCOCCCNC(=O)CSCc1nc(-c2ccc(SC)cc2)oc1C", "FP activity change, negative = inhibition": "inactive: -9.66%"},
      {"compound": "Cc1cc(N2CCOCC2)nc(SCC(=O)OCc2ccccc2)n1", "FP activity change, negative = inhibition": "inactive: -8.36%"},
      {"compound": "COC(=O)C1OC2(OC1C(=O)OC)c1ccccc1-c1ccccc12", "note": "(stereo not drawn)", "FP activity change, negative = inhibition": "inactive: -11.5%"},
      {"compound": "O=S(=O)(NCCNC/C=C/c1ccc(Br)cc1)c1cccc2cnccc12", "FP activity change, negative = inhibition": "inactive: -0.902%"},
      {"compound": "Cc1ccc(/C=N/Nc2ccccn2)s1", "Potency": "inconclusive: 10 µM [quencher, side channel, single point]"},
      {"compound": "Nc1ccc2nc(-c3ccc(N)c(Cl)c3)[nH]c2c1", "Potency": "inconclusive: 22.4 µM [quencher, side channel, partial curve]"},
      {"compound": "O=C(NCc1cccs1)c1cc(-c2ccncc2)nc2ccc(Br)cc12", "Potency": "inconclusive: 28.2 µM [quencher, side channel, single point]"},
      {"compound": "O=C(CSc1nc(C2CC2)nc2ccccc12)Nc1cccc(O)c1", "Potency": "inconclusive: 39.8 µM [fluorescent, side channel, single point]"},
      {"compound": "COc1cccc(NC(=O)CCC(=O)Nc2cc(OC)c(NC(=O)c3cccs3)cc2OC)c1", "Potency": "inconclusive: 10 µM [quencher, side channel, partial curve]"},
      {"compound": "CCOc1ccc2nc(NC3=NC(c4ccc(OC)cc4)CC(=O)N3)nc(C)c2c1", "note": "(stereo not drawn)", "Potency": "inconclusive: 3.16 µM [inhibitor, partial curve]"},
      {"compound": "CSCC[C@H](N)C(=O)N[C@@H](CO)C(=O)N[C@@H](CCCN=C(N)N)C(=O)N1CCC[C@H]1C(=O)N[C@@H](C)C(=O)N[C@@H](CS)C(=O)N1CCC[C@H]1C(=O)N[C@@H](CC(N)=O)C(=O)N[C@@H](CC(=O)O)C(=O)N[C@@H](CCCCN)C(=O)N[C@@H](Cc1ccc(O)cc1)C(=O)N[C@@H](CCC(=O)O)C(=O)O", "FP activity change, negative = inhibition": "inactive: 7.02%"},
      {"compound": "NS(=O)(=O)c1cccc(NC(=O)COC(=O)Cc2ccc(S(=O)(=O)N3CCCCC3)s2)c1", "Potency": "inconclusive: 20 µM [quencher, side channel, partial curve]"},
      {"compound": "CN(C)CCNc1ncnc2sc(-c3ccccc3)cc12", "FP activity change, negative = inhibition": "inactive: -19.7%"},
      {"compound": "COc1cccc(NC(=S)N(Cc2ccc(Cl)cc2)Cc2ccc(C(=O)O)cc2)c1", "Potency": "inconclusive: 12.6 µM [quencher, side channel, partial curve]"},
      {"compound": "CN(CCc1cn[nH]c1)C(=O)CC1C(=O)NCCN1Cc1cccc(Oc2ccccc2)c1", "note": "(stereo not drawn)", "Potency": "inconclusive: 31.6 µM [fluorescent, side channel, single point]"},
      {"compound": "Cc1ccc(S(=O)(=O)/N=C2/C=C(Sc3ncn[nH]3)C(=O)c3ccccc32)cc1", "Potency": "inconclusive: 8.91 µM [quencher, side channel, partial curve]"},
      {"compound": "O=C(CC(=O)Nc1cccc(F)c1)Nc1cccc(F)c1", "Potency": "inconclusive: 22.4 µM [quencher, side channel, partial curve]"},
      {"compound": "S=C(NCCCc1ccccc1)Nc1ccc(Cl)cc1", "Potency": "inconclusive: 20 µM [quencher, side channel, single point]"},
      {"compound": "O=C(CN1CCCCCC1)Nc1ccc(Br)cc1Br", "Potency": "inconclusive: 22.4 µM [fluorescent, side channel, single point]"},
      {"compound": "O=C(Nc1ccc(NC(=O)c2cccs2)cc1)c1ccc(Br)o1", "Potency": "inconclusive: 39.8 µM [inhibitor, single point]"},
      {"compound": "CC(=O)NC(c1ccc(Cl)cc1)c1c(O)ccc2ccc(O)cc12", "note": "(stereo not drawn)", "Potency": "inconclusive: 35.5 µM [quencher, side channel, partial curve]"},
      {"compound": "CCOc1ccc(CN2CCN(Cc3ccc(C)o3)CC2CCO)cc1", "note": "(stereo not drawn)", "Potency": "inconclusive: 3.16 µM [inhibitor, full curve, poor fit]"},
      {"compound": "CCC(C)NC(=O)c1ccc(CSc2nc3ccncc3n2Cc2ccc(F)cc2)cc1", "note": "(stereo not drawn)", "FP activity change, negative = inhibition": "inactive: 0.845%"},
      {"compound": "COc1ccccc1C(=O)Nc1nc2ccc(S(C)(=O)=O)cc2s1", "Potency": "inconclusive: 39.8 µM [inhibitor, single point]"},
      {"compound": "O=C(NCc1cn(-c2ccccc2)nc1-c1ccc(F)cc1)c1cccc([N+](=O)[O-])c1", "Potency": "inconclusive: 8.91 µM [quencher, side channel, partial curve]"},
      {"compound": "Cc1ccccc1OCC(=O)NC(=S)Nc1ccc(N2CCCC2)cc1", "Potency": "inconclusive: 15.8 µM [quencher, side channel, partial curve]"},
      {"compound": "Cc1ccc(C(=O)OCC(=O)c2c[nH]c3ccccc23)cc1", "Potency": "inconclusive: 39.8 µM [inhibitor, single point]"},
      {"compound": "Cc1ccc(Sc2cc(C(=O)c3ccccc3C(=O)O)ccc2[N+](=O)[O-])cc1", "Potency": "inconclusive: 28.2 µM [quencher, side channel, single point]"},
      {"compound": "COCCN(CCOC)S(=O)(=O)c1ccc(C(=O)NC2CCN(Cc3ccccc3)CC2)cc1", "FP activity change, negative = inhibition": "inactive: -5.02%"},
      {"compound": "O=C(Cn1cc(SCc2ccc(Cl)cc2)c2ccccc21)N1CCOCC1", "FP activity change, negative = inhibition": "inactive: 7.26%"},
      {"compound": "CN(C)c1ccc(Nc2ccc([N+](=O)[O-])cn2)cc1", "Potency": "inconclusive: 35.5 µM [quencher, side channel, single point]"},
      {"compound": "CC1CCCCN1CCNC(=O)C1CCN(S(=O)(=O)N2CCCCC2)CC1", "note": "(stereo not drawn)", "Potency": "inconclusive: 31.6 µM [inhibitor, partial curve]"},
      {"compound": "COc1ccccc1Nc1nc(Cl)c(C=O)s1", "Potency": "inconclusive: 20 µM [quencher, side channel, partial curve]"},
      {"compound": "COc1ccc(S(=O)(=O)/C(C#N)=C/Nc2cccc(OC)c2)cc1", "Potency": "inconclusive: 15.8 µM [quencher, side channel, partial curve]"},
      {"compound": "O=C(COc1ccc(Cl)cc1Cl)NC(=S)Nc1ccccc1C(=O)O", "Potency": "inconclusive: 31.6 µM [quencher, side channel, single point]"},
      {"compound": "COC(=O)c1c(C(=O)OC)c2cccc3cc(-c4ccccc4)c4ccc1c4n32", "Potency": "inconclusive: 7.94 µM [quencher, side channel, partial curve]"},
      {"compound": "CC(=O)N1C(=O)/C(=C2\\SC(=S)N(NS(=O)(=O)c3ccc(C)cc3)C2=O)c2ccccc21", "Potency": "inconclusive: 25.1 µM [quencher, side channel, partial curve]"},
      {"compound": "COc1cc(/C=C2\\CCCc3c2nc2ccccc2c3C(=O)O)cc([N+](=O)[O-])c1O", "Potency": "inconclusive: 25.1 µM [quencher, side channel, single point]"},
      {"compound": "CC(C)(C)c1cc(/C=C(\\C#N)C(N)=S)cc(C(C)(C)C)c1O", "Potency": "inconclusive: 11.2 µM [quencher, side channel, partial curve]"},
      {"compound": "N#C/C(=C\\c1ccc(-c2ccc(C(=O)O)cc2)o1)C(=O)Nc1ccc(F)cc1", "Potency": "inconclusive: 15.8 µM [quencher, side channel, partial curve]"},
      {"compound": "COc1ccccc1N(CC(O)Cn1ccnc1C)S(=O)(=O)c1ccccc1", "note": "(stereo not drawn)", "Potency": "inconclusive: 11.2 µM [inhibitor, partial curve]"},
      {"compound": "COc1ccc(/C=N/NC(=O)c2nn(-c3ccc(Cl)cc3)c(=O)c3c(N)scc23)cc1", "Potency": "inconclusive: 15.8 µM [quencher, side channel, partial curve]"},
      {"compound": "N#Cc1ccc(NC(=O)CCc2ccc(S(=O)(=O)N3CCOCC3)cc2)cc1", "FP activity change, negative = inhibition": "inactive: -1.83%"},
      {"compound": "Cn1nc(C(F)(F)F)c(C#N)c1N1CCN(c2ccc(F)cc2)CC1", "FP activity change, negative = inhibition": "inactive: 0.916%"},
      {"compound": "CC(C)C1Cc2c(sc3[nH]c(=S)n(Cc4ccccc4)c(=O)c23)CO1", "note": "(stereo not drawn)", "Potency": "inconclusive: 12.6 µM [quencher, side channel, partial curve]"},
      {"compound": "CN(C)c1ccc(/C=C2\\N=C(c3ccc(Cl)c([N+](=O)[O-])c3)NC2=O)cc1", "Potency": "inconclusive: 2.82 µM [quencher, side channel, full curve]"},
      {"compound": "COc1cc(C(=O)Nc2nnc(S(=O)(=O)N3CCCCCC3)s2)cc(OC)c1OC", "Potency": "inconclusive: 14.1 µM [quencher, side channel, partial curve]"},
      {"compound": "COc1ccc(-n2nc(C(=O)NCC(=O)N3CC(C)CC(C)C3)c3ccccc3c2=O)cc1", "note": "(stereo not drawn)", "FP activity change, negative = inhibition": "inactive: -26.4%"},
      {"compound": "O=C(O)c1ccccc1NC(=O)c1cc2ccccc2oc1=O", "Potency": "inconclusive: 31.6 µM [quencher, side channel, single point]"}
    ]}
  ]
}
